Experimental data taken from article PMC4336329 (PLoS ONE, 2015).
The campaign covered roughly 310,000 compounds. About 2,200 (0.71%) showed an effect of 50% or more. The effect is printed as a negative number. This is one part of the list.

Biological target: human ether-à-go-go-related gene (hERG) potassium channel (human, UniProt Q12809)
Assay: primary screen, population patch clamp on CHO cells stably expressing hERG

human ether-à-go-go-related gene (hERG) potassium channel, sequence (Q12809 whole entry, looked up): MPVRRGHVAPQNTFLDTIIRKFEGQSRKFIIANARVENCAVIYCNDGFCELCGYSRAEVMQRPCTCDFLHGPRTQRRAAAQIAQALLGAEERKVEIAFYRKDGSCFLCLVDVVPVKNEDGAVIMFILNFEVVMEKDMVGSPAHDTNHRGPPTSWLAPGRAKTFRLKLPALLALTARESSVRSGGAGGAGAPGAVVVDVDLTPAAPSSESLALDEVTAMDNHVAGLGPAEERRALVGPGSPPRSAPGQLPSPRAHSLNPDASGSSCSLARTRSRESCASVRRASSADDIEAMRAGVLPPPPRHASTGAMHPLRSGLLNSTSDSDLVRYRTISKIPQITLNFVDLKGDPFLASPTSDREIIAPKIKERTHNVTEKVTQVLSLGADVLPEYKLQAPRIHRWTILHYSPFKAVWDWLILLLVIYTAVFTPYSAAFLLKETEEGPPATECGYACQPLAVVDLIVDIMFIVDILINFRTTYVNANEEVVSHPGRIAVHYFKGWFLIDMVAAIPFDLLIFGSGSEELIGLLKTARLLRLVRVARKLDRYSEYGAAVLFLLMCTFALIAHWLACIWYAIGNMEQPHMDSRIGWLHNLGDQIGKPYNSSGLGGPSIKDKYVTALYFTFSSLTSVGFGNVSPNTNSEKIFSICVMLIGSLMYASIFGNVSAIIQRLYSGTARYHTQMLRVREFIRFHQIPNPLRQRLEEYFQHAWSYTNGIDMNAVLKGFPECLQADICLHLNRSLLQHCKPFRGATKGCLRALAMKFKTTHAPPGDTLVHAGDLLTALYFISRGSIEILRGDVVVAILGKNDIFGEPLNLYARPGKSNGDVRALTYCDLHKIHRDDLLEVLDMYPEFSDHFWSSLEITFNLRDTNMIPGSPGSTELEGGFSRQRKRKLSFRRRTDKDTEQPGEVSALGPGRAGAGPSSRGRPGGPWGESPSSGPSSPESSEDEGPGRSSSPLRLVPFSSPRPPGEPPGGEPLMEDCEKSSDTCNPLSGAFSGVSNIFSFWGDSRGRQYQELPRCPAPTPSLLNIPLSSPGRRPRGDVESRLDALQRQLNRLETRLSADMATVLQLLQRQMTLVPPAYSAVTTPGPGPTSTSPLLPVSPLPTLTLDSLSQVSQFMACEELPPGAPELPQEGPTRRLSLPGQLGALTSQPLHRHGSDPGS

Compound	hERG current change (%, negative = inhibition) at 1uM [%]
Cc1ccc(NC2=C/C(=N/S(=O)(=O)c3cccs3)c3ccccc3C2=O)cc1C	12.4
Cc1ccc(S(=O)(=O)C2CCCCC2=O)cc1 (centres unmarked)	13.4
COc1ccc(/C=C2\NC(=S)N(CC3CCCO3)C2=O)c(OC)c1C (centres unmarked)	8.6
Cn1c(SCC(=O)Nc2ccc(NC(=O)c3cccs3)cc2)nnc1-c1ccncc1	1.87
CCOc1cc(N2CCOCC2)c(OCC)cc1NC(=O)COc1ccccc1[N+](=O)[O-]	6.81
CC(C)Cc1nnc(NC(=O)CCNC(=O)c2ccccc2Cl)s1	9.84
CCN(CC)CCNC(=O)C(=O)Nc1cc2c3c(c1)CC(=O)N3CCC2	23.5
CC1Cc2ccccc2N1C(=O)CN1C(=O)C(=O)N(Cc2ccccc2)C1=O (centres unmarked)	14.1
COc1ccc(-c2cc(C)no2)cc1S(=O)(=O)NCCCN1CCN(c2ccccc2)CC1	-18.8
CN(Cc1ccccc1)C(=O)CN1C(=O)NC(C)(c2ccc(C(C)(C)C)cc2)C1=O (centres unmarked)	11
O=C(NC1CCCC1)c1n[nH]c2ccccc12	12
CCOC(=O)Nc1cc(OC)c(OC)cc1Cc1nccc2cc(OC)c(OC)cc12	-1.65
COc1ccc(OC)c(NC(=O)CSc2nnc(Cc3cccn3C)n2CCc2ccccc2)c1	-2.49
Cc1ccc2nc(SCC(=O)NCc3ccc(S(N)(=O)=O)cc3)[nH]c2c1	14.4
Cc1nnc(NC(=O)CN2CCN(Cc3c(Cl)cccc3Cl)CC2)s1	11.9
Cc1ccc(NC(=O)c2cc(S(=O)(=O)Nc3ccc(C)cc3)cs2)cc1	14.2
COc1ccc(Cl)cc1NC(=S)N(CCCN1CCOCC1)Cc1cn(C)c2ccccc12	8.42
Cc1cc(Cl)c(OCCCN2CCCCC2)c(Br)c1.O=C(O)C(=O)O	-33.2
Cc1ccc(C(=O)COC(=O)CCC(=O)NC2CCCCC2)cc1[N+](=O)[O-]	9.1
Cl.c1ccc2c(Nc3nc(N4CCOCC4)c4ccccc4n3)cccc2c1	20
O=C(C1CCC1)N1CCN(c2ccc(C(F)(F)F)cc2[N+](=O)[O-])CC1	-24.6
CC(=O)Oc1c(S(=O)(=O)c2ccc(C)cc2)c(C)nn1-c1ccccc1	-2.15

Compound	hERG current change (%, negative = inhibition) at 1uM [%]
O=c1c(N=Nc2ccc(O)cc2)c(-c2ccccc2)[nH]n1-c1ccc([N+](=O)[O-])cc1	9.87
O=C(CSCc1ccc([N+](=O)[O-])cc1)Nc1ccc(S(=O)(=O)N2CCCCCC2)cc1	10.8
COc1ccc(OC)c(NC(=O)C2CCCN(S(=O)(=O)c3cccc4nonc34)C2)c1 (centres unmarked)	8.05
Cc1ccc(CN2CCN(C(=O)C3CCC3)CC2)cc1	19.5
Cc1ccc2cc3c(NC(=O)c4cccnc4)nn(C)c3nc2c1	14.9
CCC(=O)NC(=S)Nc1ccc(OC)cc1OC	11.5
COc1ccccc1Nc1nc(N)nc(CCl)n1	9.66
COc1ccccc1NC(=O)N1CCN(C(=O)c2ccco2)CC1	8.7
COC(=O)C1=C(C)N(c2ccc(F)cc2)/C(=C/c2ccc(O)cc2)C1=O	22.4
COc1ccccc1-n1cnc2cc(C(=O)NC3CCCC3)ccc21	-20.9
COC(=O)C1CN(C(=O)COc2ccc(Cl)c(C)c2)c2ccccc2O1 (centres unmarked)	2.74
CCCN(Cc1cc2cccc(C)c2[nH]c1=O)C(=O)c1cccc(OC)c1	-20.2
O=C(c1ccc(S(=O)(=O)N2CCCC2)cc1)N(c1ccccc1)C1C=CS(=O)(=O)C1 (centres unmarked)	3.87
O=C(C(=O)N1CCN(c2ccc(F)cc2)CC1)c1cn(CC(=O)N2CCOCC2)c2ccccc12	8.97
Nc1c2c(nc3ccccc13)CCCC2=O.O=C(O)CCC(=O)O	2.69
O=C(COC(=O)c1cc(S(=O)(=O)N2CCCCC2)ccc1N1CCOCC1)c1ccccc1	14.4
O=C1c2ccccc2C(=O)c2c1ncn2-c1ccccc1	-1.06
Cc1cc(C)nc(N2CCCC(C(=O)NCc3ccccc3F)C2)n1 (centres unmarked)	10.8
COC(=O)Nc1ccc(S(=O)(=O)Nc2cccc3ccccc23)cc1	8.94
COc1ccc(NC(=O)c2cccnc2N2CCCC2)cc1	0.501
O=C1c2ccccc2C(=O)N1/N=C/c1ccc(O)c(O)c1	13.9
CCOC(=O)c1ccc(N2CN=C3SCC(=O)N3C2)cc1	5.05

Compound	hERG current change (%, negative = inhibition) at 1uM [%]
COc1ccc(C2C3=C(CC(C)(C)CC3=O)Nc3c2c(=O)[nH]c(=O)n3Cc2ccccc2)cc1OC (centres unmarked)	6.07
CC(NC(=O)COc1ccc(/C=N/NC(=O)CO)cc1)c1ccccc1 (centres unmarked)	4.94
CC12CCC(C(=O)N3CCc4ccccc43)(CC1=O)C2(C)C (centres unmarked)	6.9
Cc1cc2cc(CCNC(=O)c3cccs3)c(=O)[nH]c2cc1C	3.28
Cc1ccc(NC(=O)OCc2cc(-c3ccccc3)on2)cc1	3.74
Cc1nnc(SC(C)C(=O)Nc2ccc(S(=O)(=O)N3CCCCC3)cc2)s1 (centres unmarked)	5.99
CCOC(=O)CSc1nnc(N)s1	13.4
O=C(CSc1nc2ccccc2c(=O)n1-c1ccccc1)NC(=O)CN1CCCC1=O	13.8
COC(=O)c1ccc(OC(=O)CCN2c3ccccc3Sc3ccccc32)cc1	11.4
Cc1ccc(NC(=O)C(C)Sc2nc3nc(C)cc(C)n3n2)cc1 (centres unmarked)	-2.41
C/C(CC(=O)N1CCN(C=O)CC1)=N\NC(=O)c1cc2ccccc2cc1O	4.71
Cc1ccc(NC(=O)/C=C/C(=O)O)c(NC(=O)c2ccccc2)c1	10.5
CCCCC1(c2ccc(F)cc2)NC(=O)N(CC(=O)N2CCN(C(=O)c3ccco3)CC2)C1=O (centres unmarked)	-13.9
Cc1ccc2[nH]c(=O)c(CN(Cc3ccco3)C(=O)CN3CCCC(C)C3)cc2c1 (centres unmarked)	-18.9
CCOC(=O)C1CCN(C(=O)CN(c2cc(Cl)ccc2OC)S(=O)(=O)c2ccccc2)CC1	-1.05
COc1cccc(C=O)c1OC(=O)N1CCOCC1	17.8
CCN(CC)c1ccc(NC(=O)c2cccc(C)c2OC)c(C)c1	8.91
COCCCN(C(=O)c1cccnc1SC)c1c(N)n(Cc2ccccc2)c(=O)[nH]c1=O	-6.78
O=C1COc2ccc(C(=O)COC(=O)COc3ccccc3[N+](=O)[O-])cc2N1	10.9
COc1ccc(-c2cc3ccccc3n2CC(O)CNC(CO)(CO)CO)cc1 (centres unmarked)	6.61
O=C(c1ccco1)N1CCN(c2ccc(N3CCCCC3)nn2)CC1	-3.9
Cn1c(=O)c2c(nc(Sc3ncnn3CC(=O)NC(C)(C)C)n2C)n(C)c1=O	20.5

Compound	hERG current change (%, negative = inhibition) at 1uM [%]
COc1ccc(Nc2c([N+](=O)[O-])ccc3c2=NC2(CCCCC2)N=3)cc1	10.8
NC(=S)c1cn(C2OC(CO)C(O)C2O)c2ncnc(N)c12 (centres unmarked)	20
Nc1c(C(=O)NCCc2ccccc2)nnn1Cc1ccccc1	1.46
Nc1ccc2cn[nH]c2c1	18.8
CS(=O)(=O)c1ccc(Cl)c(NC(=O)Cc2ccccc2F)c1	13.5
O=C(NCCCN1CCN(Cc2ccccc2)CC1)C1CCN(c2nnc(-n3cccc3)s2)CC1	-10.7
CC/C(CC(c1ccccc1)c1c(O)c2ccccc2oc1=O)=N\NC(N)=S (centres unmarked)	10.5
COc1ccccc1Nc1c([N+](=O)[O-])cncc1[N+](=O)[O-]	10.6
CCn1c(CNC(=O)COc2ccc(C(C)C)cc2)nnc1SCC(=O)Nc1ccc(F)cc1	-27.9
O=C(Cn1cnc2ccccc21)Nc1ccc(C(=O)O)cc1.O=C(O)C(=O)O	-52.9
CCN=C1NN=C(c2ccc(C)cc2)CS1	11
O=[N+]([O-])c1ccc(NC(=S)N2CCN(S(=O)(=O)c3ccccc3)CC2)cc1	7.5
CCNC(=O)COC(=O)c1sccc1C	6.81
Cc1ccc(C)c(N(CC(=O)NC2CCCC2)C(=O)c2cc3cc4cccc(C)c4nc3s2)c1	10.6
CCOC(=O)N1CCN(C(=O)C2CCN(S(=O)(=O)N3CCCC3)CC2)CC1	10.6
COC(=O)c1sccc1Oc1ccc(Cl)cc1N1C(=O)CCC1=O	8.78
Cc1nnc(SCC(=O)N/N=C/c2cn(-c3ccccc3)nc2-c2ccc(F)cc2)n1-c1ccccc1	10.3
COC(=O)c1cccc(NS(=O)(=O)c2ccc(NC(C)=O)cc2)c1C	1.99
C=CCn1c(NCCOC)nc2c1c(=O)n(C)c(=O)n2C	8.26
Cc1cc(NS(=O)(=O)c2ccc(NC(=O)c3c(F)c(F)c(F)c(F)c3F)cc2)nc(C)n1	2.59
